Measurements published in PubChem BioAssay AID624296 (National Center for Advancing Translational Sciences (NCATS), 2012).
In all, about 350,000 compounds went through this assay and about 9,900 (2.8%) were called active. This list was built around the results that the source calls inconclusive (neither active nor inactive); the mix of calls is not that of the screen. Calls come from the whole dose curve; as a rule, active = well fitted activation curve with a large enough effect; inconclusive = small, poorly fitted or top-dose-only effect; inactive = no such curve, though single readings can be large or run the other way. Potencies of inconclusive entries are left out as doubtful fits.

Assay: A quantitative high throughput screen for small molecules that induce DNA re-replication in MCF 10a normal breast cells. For activity, positive = re-replication: % of control where 0% means no effect. Note: nearly all actives have a fitted effect of over 50% in size.
Conditions: MCF 10A DNA re-replication, Hoechst nuclear intensity, 48 h; activity, positive = re-replication: at 46.1 µM (top of the series)
Text: H Molecular Libraries Probe Production Network [MLPCN]
NIH Chemical Genomics Center [NCGC]
Assay Provider: Melvin DePamphilis, NICHD, NIH
Eukaryotic cells normally restrict genome duplication to once per cell division. When this process is aberrant, DNA re-replication occurs when cells reinitiate DNA replication before the first round of replication is complete. DNA re-replication induces the DNA damage response, arrests cell proliferation, and triggers apoptosis. The cell cycle components cyclin A, Cdt-1, Cdc6 and geminin are critical regulators of this process and their misregulation results in DNA re-replication in normal and cancer cells. To identify compounds that induce re-replication in normal cells, an image-based assay was used to measure DNA content of nuclei, as detected by the fluorescent DNA binding dye, Hoechst. Cell nuclei were imaged by a fluorescence scanning plate imager and compounds that induce DNA re-replication were identified by the increase of nuclei with elevated fluorescence intensity
For screening, 250 cells in 5 uL/well were dispensed into black clear 1536-well plates (Aurora) using a solenoid-based dispenser. Following transfer of 23 nL compound or DMSO vehicle by a pin tool, the plates were incubated 48 hr at 37 C and 5% CO2. After addition of 1 uL/well Hoescht stain, the plates were incubated 40 min at 37 C, 5% CO2 and total intensity of fluorescent objects (nuclei) were enumerated by an Acumen Explorer Ex3 (TTP LabTech) fluorescence scanning plate imager (405 nm excitation, 500-530 nm emission).
Keywords: NIH Roadmap, MLPCN, MLI, MLSMR, qHTS, NCGC, DNA replication, cancer
Potency is the fitted concentration of half-maximal effect; tags give direction and shape of the fitted curve.

| Compound | Potency | activity, positive = re-replication |
| --- | --- | --- |
| CCOC(=O)c1c(C)n(Cc2ccccc2)c2ccc(O)cc12 | inconclusive [activator, single point] |  |
| CC(=O)Nc1ccccc1C(=O)OCc1ccc(C(=O)c2ccccc2)cc1 | inconclusive [activator, single point] |  |
| COc1ccc(-c2nn(CCC#N)cc2C(=O)Nc2ccc(C(C)=O)cc2)cc1[N+](=O)[O-] |  | inactive: 7.84% |
| CCN1C(=O)C(=Cc2ccc(C)s2)C(=O)N(CC)C1=S | inconclusive [activator, single point] |  |
| CC(C)c1ccc2c(c1)C(N1CCNCC1)Cc1ccc(F)cc1S2 (centres undefined) | inconclusive [activator, single point] |  |
| CCCCn1c(O)c(C(C)=Nc2ccc(OCC)cc2)c(=O)[nH]c1=O |  | inactive: -6.01% |
| O=C(NCc1cccnc1)Nc1ccccc1Cl |  | inactive: 15% |
| O=c1cc(CN2CC=C(c3ccccc3)CC2)c2c(ccc3ccccc32)o1 | inconclusive [activator, single point] |  |
| N#CC(C#N)=NNc1ccc(-n2ccc(C(F)(F)F)n2)cc1 | inconclusive [activator, single point] |  |
| O=S(=O)(CCN1CCN(c2ccccn2)CC1)c1ccc(Cl)cc1Cl | inconclusive [activator, partial curve, poor fit] |  |
| COC(=O)C1=C(c2ccc(C(C)=O)cc2)C[C@@H]2CC[C@H]1N2C(=O)NCCO |  | inactive: 1.32% |
| c1ccc(N2C3C4CC(C5CCCC54)C32)cc1 (centres undefined) | inconclusive [activator, single point] |  |
| N#Cc1c(Br)n(C2OC(CO)C(O)C2O)c2ncnc(N)c12 (centres undefined) | inconclusive [activator, full curve] |  |
| COc1cc2oc(=O)c(CC(=O)N3C[C@H]4C[C@@H](C3)c3cccc(=O)n3C4)c(C)c2cc1Cl | inconclusive [activator, full curve, poor fit] |  |
| O=C(O)c1ccc(N=Cc2c(O)[nH]c(=O)[nH]c2=O)cc1 |  | inactive: -1.17% |
| Clc1ccc(COC(Cn2ccnc2)c2ccc(Cl)cc2Cl)c(Cl)c1 (centres undefined) | active: 11.6 µM |  |
| O=C(Nc1ccccc1)c1c(O)[nH]c(=S)[nH]c1=O | inconclusive [activator, single point] |  |
| Cc1cc(=O)n(-c2ccccc2)n1C | inconclusive [activator, full curve, poor fit] |  |
| COc1cc2c(cc1OC)C13CCN4CC5=CCOC6CC(=O)N2C1C6C5C3C4 (centres undefined) (tested in a mixture with another compound) |  | inactive: -17.5% |
| CCN(CC)c1ccc(CN2CC=C(c3ccc(F)cc3)CC2)cc1 | inconclusive [activator, single point] |  |
| CC(C)(C)C(=O)N1Cc2ccccc2-n2nncc2C1 | inconclusive [activator, single point] |  |
| CC(=O)[C@H]1CC[C@H]2[C@@H]3CC=C4C[C@@H](OS(=O)(=O)O)CC[C@]4(C)[C@H]3CC[C@]12C | inconclusive [activator, single point] |  |

| Compound | Potency | activity, positive = re-replication |
| --- | --- | --- |
| C[C@]12CC[C@@H](O)CC1=CCC1C2CC[C@@]2(C)C1CC[C@@H]2N (some centres undefined) | inconclusive [activator, partial curve, poor fit] |  |
| N#C/C(=C\c1ccc(N2CCCCC2)c([N+](=O)[O-])c1)c1nn(-c2ccccc2)c(N)c1C#N | inconclusive [activator, single point] |  |
| NS(=O)(=O)c1ccc(CNC(=O)COc2ccc3c4c(c(=O)oc3c2)CCCC4)cc1 | inconclusive [activator, single point] |  |
| COC(=O)C1=C(c2ccc3ccccc3c2)C[C@@H]2CC[C@H]1N2C(=O)NC1Cc2ccccc2C1 | inconclusive [activator, single point] |  |
| CC12C=CC(=O)C=C1CCC1C2C(=O)CC2(C)C(=O)CCC12 (centres undefined) | inconclusive [activator, full curve] |  |
| O=C1NC(=O)C(=Cc2coc3ccc(O)cc3c2=O)C(=O)N1 |  | inactive: 10% |
| CSC(=Nc1ccccc1)c1c(O)n(C)c(=O)n(C)c1=O | inconclusive [activator, partial curve, poor fit] |  |
| Cc1c(C(=O)N2CCC(Cc3ccccc3)CC2)sc2ncnc(N3CCC(C)CC3)c12 | inconclusive [activator, full curve, poor fit] |  |
| O=c1c2ccccc2nc(/C=C/c2ccccc2)n1-c1ccccc1O | inconclusive [activator, partial curve] |  |
| O=c1[nH]c(=S)[nH]c(O)c1/C=C1/C=c2ccccc2=N1 | inconclusive [activator, single point] |  |
| O=C1NCCCCC1(Cl)Cl |  | inactive: 0.485% |
| COc1ccccc1OCCCn1cc(C(=O)C2CC2)c2ccccc21 | inconclusive [activator, partial curve, poor fit] |  |
| O=C(NC(=O)c1c(F)cccc1F)Nc1ccc(Cl)c(Oc2ncc(C(F)(F)F)cc2Cl)c1 | inconclusive [activator, partial curve] |  |
| Cc1ccc(CN2C3CCCC2CC(NC(=O)c2ccc(C)cc2)C3)cc1 (centres undefined) | inconclusive [activator, partial curve, poor fit] |  |
| Cc1ccc(-n2c(/C=C/c3ccccn3)nc3ccccc3c2=O)cc1 | inconclusive [activator, partial curve, poor fit] |  |
| CCOC(=O)C(O)(c1ccc(N(CC)C(=O)COc2ccccc2)cc1)C(F)(F)F (centres undefined) |  | inactive: 0.402% |
| CCC(=O)O[C@H]1CC[C@H]2[C@@H]3CCC4=CC(=O)CC[C@]4(C)[C@H]3CC[C@]12C | inconclusive [activator, partial curve, poor fit] |  |
| O=C(O)c1ccc([N+](=O)[O-])c([N+](=O)[O-])c1 | inconclusive [activator, single point] |  |
| COC(=O)C1=C(c2cccc(OC)c2OC)C[C@@H]2CC[C@H]1N2C(=O)NCCO |  | inactive: 3.26% |
| COc1ccc(/C=C/C(=O)NC(=S)N2C[C@H]3C[C@H](C2)c2cccc(=O)n2C3)cc1OC | inconclusive [activator, partial curve, poor fit] |  |
| COC(=O)C1=C(c2ccc(C(C)=O)cc2)C[C@@H]2CC[C@H]1N2C(=O)N1CCCC1 | inconclusive [activator, full curve, poor fit] |  |
| Clc1ccc2c(c1)C(c1ccccc1Cl)=NCc1nnc(N3CCN(CCOc4ccccc4)CC3)n1-2 | inconclusive [activator, single point] |  |

| Compound | Potency | activity, positive = re-replication |
| --- | --- | --- |
| CCCCCn1c(=O)c(C(=O)NC(C)c2ccccc2)c(O)c2ccccc21 (centres undefined) |  | inactive: -1.77% |
| CCc1cccc(NC(=O)Cn2c(=O)oc3cc(S(=O)(=O)N4CCOCC4)ccc32)c1 | inconclusive [activator, single point] |  |
| CC1(C)CC(=O)C(C2(O)C(=O)NC(=O)NC2=O)=C(O)C1 | inconclusive [activator, single point] |  |
| CCCCCCOc1ccc(CN2CCN(CCO)CC2)cc1 | inconclusive [activator, partial curve, poor fit] |  |
| C/C(=N\NC(N)=S)C12CC3CC(CC(C3)C1)C2 | active: 7.31 µM |  |
| CC(=NCCO)c1c(O)n(C2CCCCC2)c(=O)[nH]c1=O |  | inactive: -1.95% |
| CN1CCC(O)(c2ccc(Cl)cc2)C(C(=O)c2ccc(Cl)cc2)C1 (centres undefined) | inconclusive [activator, single point] |  |
| COc1ccc(CNCCc2ccc(Cl)cc2)c(OC)c1OC | inconclusive [activator, single point] |  |
| COCCNC(=O)c1c(NC(=O)c2ccc(Br)o2)n(Cc2ccccc2)c2nc3ccccc3nc12 | active: 5.8 µM |  |
| N[C@@H](Cc1c[nH]c2ccccc12)c1nnc(SCc2ccc(Cl)cc2)o1 | inconclusive [activator, partial curve, poor fit] |  |
| CCn1c(O)c(C=NCc2cccs2)c(=O)n(CC)c1=S | inconclusive [activator, partial curve, poor fit] |  |
| COP(=S)(OC)Oc1ccc(Sc2ccc(OP(=S)(OC)OC)cc2)cc1 | inconclusive [activator, single point] |  |
| CCn1c(O)c(C=NCc2ccccc2)c(=O)[nH]c1=S | inconclusive [activator, partial curve, poor fit] |  |
| Cc1c(N=Cc2c(O)n(CCc3ccccc3)c(=O)[nH]c2=O)c(=O)n(-c2ccccc2)n1C | inconclusive [activator, partial curve, poor fit] |  |
| O=C1Nc2ccc(Br)cc2C(c2ccc(Cl)cc2)=NC1O (centres undefined) |  | inactive: 8.74% |
| O=C(O)C(O)(c1ccccc1)C1CCCC1 (centres undefined) | inconclusive [activator, partial curve, poor fit] |  |
| Nc1c2c(nc3sc4c(c13)CCCC4)CCCCC2 | inconclusive [activator, partial curve] |  |
| O=C1OC(=O)C2C1[C@@H]1CC[C@H]2O1 (some centres undefined) | inconclusive [activator, partial curve, poor fit] |  |
| CC1CC=CCC12C(=O)NC(=S)NC2=O (centres undefined) | inconclusive [activator, single point] |  |
| CC/C(=N\N1CCCCCC1)c1c(O)n(-c2ccc(C)cc2)c(=O)[nH]c1=O |  | inactive: -5.32% |
